# Results from PubChem BioAssay AID588591 (National Center for Advancing Translational Sciences (NCATS), 2011).
# Among all 390,000 compounds or so, about 4,700 (1.2%) were called active. Inconclusive means that the source gave no clear call. Such entries were picked first, then a sample of the others. Calls come from the whole dose curve; as a rule, active = well fitted inhibition curve with a large enough effect; inconclusive = small, poorly fitted or top-dose-only effect, or another doubt; inactive = no such curve, though single readings can be large or run the other way. Potencies of inconclusive entries are doubtful fits and often do not repeat.
# Target: DNA polymerase eta (Homo sapiens) (UniProt Q9Y253)
# Assay: qHTS for Inhibitors of Polymerase Eta
# Details: recombinant Pol eta, fluorescent DNA replication assay; series mostly up to 114 µM
# In short: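 Pol eta at 10 nM preincubated with compounds 15 min at room temperature; reaction started with fluorescent substrate (50 nM final) and read kinetically at 0 and 10 min.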
# Potency is the fitted concentration of half-maximal effect; tags give direction and shape of the fitted curve.
# UniProt Q9Y253, sequence (Q9Y253 whole entry, looked up): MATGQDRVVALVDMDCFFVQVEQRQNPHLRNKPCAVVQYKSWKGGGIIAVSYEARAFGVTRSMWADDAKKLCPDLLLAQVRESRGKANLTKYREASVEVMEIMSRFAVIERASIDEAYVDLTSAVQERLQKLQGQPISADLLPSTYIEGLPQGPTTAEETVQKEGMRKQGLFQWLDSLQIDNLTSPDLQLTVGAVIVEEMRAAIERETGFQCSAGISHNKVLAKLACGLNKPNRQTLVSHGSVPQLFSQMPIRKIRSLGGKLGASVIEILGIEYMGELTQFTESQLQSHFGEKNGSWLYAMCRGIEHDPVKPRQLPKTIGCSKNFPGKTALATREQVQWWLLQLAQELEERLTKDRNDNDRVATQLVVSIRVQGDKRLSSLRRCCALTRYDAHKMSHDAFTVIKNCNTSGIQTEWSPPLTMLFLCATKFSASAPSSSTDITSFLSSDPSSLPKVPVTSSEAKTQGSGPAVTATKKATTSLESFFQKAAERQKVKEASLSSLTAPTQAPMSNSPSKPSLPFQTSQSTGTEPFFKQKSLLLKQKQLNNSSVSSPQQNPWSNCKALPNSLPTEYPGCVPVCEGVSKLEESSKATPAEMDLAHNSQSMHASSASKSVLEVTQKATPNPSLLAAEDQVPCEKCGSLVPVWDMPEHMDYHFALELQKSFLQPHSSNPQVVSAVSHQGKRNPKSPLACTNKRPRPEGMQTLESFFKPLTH
row,Compound,Potency
1,Cc1ccc(S(=O)(=O)N(C)CC(O)Cn2c3ccccc3c3ccccc32)cc1 (configuration not stated),"inconclusive: 39.8 µM [inhibitor, partial curve, poor fit]"
2,CC(=O)c1cccc(N2Cc3ccccc3C2=NC(=O)CCl)c1,"inconclusive: 89.1 µM [inhibitor, single point]"
3,O=C(NC1CCCN(Cc2ccccc2F)C1)c1cccc(N2CCCC2=O)c1 (configuration not stated),inactive
4,CSc1ccc(C2CC(=O)Oc3c2c(=O)n(C)c2ccccc32)cc1 (configuration not stated),inactive
5,CC(C)N1CCN(Cc2cccc(-c3ccco3)c2)CC1CCO (configuration not stated),inactive
6,CCc1cc2c(C)ccc(C)c2nc1SCC(=O)Nc1c[nH]c(=O)[nH]c1=O,"inconclusive: 50.1 µM [inhibitor, partial curve, poor fit]"
7,CCOc1ccc(S(=O)(=O)NCCC(=O)NCC(c2ccc(OC)cc2)N2CCCCC2)cc1 (configuration not stated),"inconclusive: 3.98 µM [inhibitor, partial curve, poor fit]"
8,CCCCOCCCNC(=O)c1ccc(OC)cc1,"inconclusive: 2.51 µM [inhibitor, partial curve, poor fit]"
9,Cc1ccc(C(=O)c2cn(Cc3cc(C)ccc3C)c3nc(C)ccc3c2=O)cc1,"inconclusive: 79.4 µM [inhibitor, partial curve, poor fit]"
10,O=Cc1ccc(C(=O)OCC(=O)NCc2ccco2)cc1,"inconclusive: 35.5 µM [inhibitor, partial curve, poor fit]"
11,COc1ccc(C(=O)/C(=C\c2ccco2)N2C=CC=CC2=C(C#N)C#N)cc1,"inconclusive: 44.7 µM [inhibitor, partial curve, poor fit]"
12,COc1ccc(NC(=S)NC(=O)/C=C/c2ccco2)cc1,inactive
13,C/C(=C/Cc1c(O)cc2oc(C)cc(=O)c2c1O)COC1OC(CO)C(O)C(O)C1O (configuration not stated),"inconclusive: 89.1 µM [inhibitor, partial curve, poor fit]"
14,CCCCOc1ccc(N2C(=O)CC(N(CCc3ccccc3)C(=O)/C=C/C(=O)O)C2=O)cc1 (configuration not stated),"inconclusive: 28.2 µM [inhibitor, partial curve]"
15,C/C=C/COC(=O)c1[nH]c2c(c1C)C(=O)CC(c1ccco1)C2 (configuration not stated),active: 22.4 µM
16,COc1ccccc1NC(=O)c1sc2nc(-c3ccco3)ccc2c1N,"inconclusive: 14.1 µM [inhibitor, partial curve, poor fit]"
17,CCCCn1c(SCC(=O)Nc2cccc(OC)c2)nc2ccc(N3CCOCC3)cc2c1=O,"inconclusive: 28.2 µM [inhibitor, partial curve, poor fit]"
